# From PubChem BioAssay AID1347428 (National Center for Advancing Translational Sciences (NCATS), 2020)
# Screen size: about 91,000 compounds; about 290 (0.32%) were called active. Inconclusive results, whose numbers are uncertain, are shown with a selection of clear calls. Calls follow the shape of the dose curve; as a rule, active = well fitted inhibition curve with a large enough effect; inconclusive = small, poorly fitted or top-dose-only effect; inactive = no such curve, though single readings can be large or run the other way. Where the call is inconclusive, the potency comes from a doubtful curve fit.
# Target: Single-stranded DNA cytosine deaminase (Homo sapiens) (UniProt Q9GZX7)
# Test: Primary qHTS assay for inhibitors of Activation Induced Cytidine Deaminase (AID): AID signal; also: nearly all actives have a fitted effect of over 25% in size
# Details: AID deamination FRET fluorescence, UDG-coupled, 4 h; activity change, negative = inhibition: at 115 µM (top of the series)
# Description: Assay Provider (PI) Patricia Gearhart Ph.D.
# National Institute on Aging
# National Institute of Health (NIH), Bethesda, MD
# Assay Provider (PI) Rahul Kohli Ph.D.
# Perelman School of Medicine
# University of Pennsylvania, Philadelphia, PA
# Activation-Induced Deaminase (AID) is a cytosine deaminase which converts cytosine into uracil within stretches of ssDNA. The presence of uracil in DNA initiates a cascade of mutagenic DNA repair to introduce point mutations and DNA double strand breaks. Specific targeting of AID to the immunoglobulin heavy chain loci (Igh) promotes mutagenesis in the antibody variable region for somatic hypermutation (SHM) or switch regions leading to class switch recombination (CSR). However, AID also plays a role in accumulating unnecessary mutations across the genome. Mis-targeting of AID results in the initiation of tumor development and leads to greater drug resistance among cancer cells when continually expressed. To identify an AID inhibitor, a small molecule library will be screened in collaboration with NCATS core facility at NIH. To confirm biological function, inhibitors will be examined in an in vitro murine B-cell activation assay and subsequent secondary validation screens. Top molecules will be further screened to identify inhibitory efficacy against a wild type primary splenocytes assay. Using these approaches, we hope to identify a small molecule with great efficacy and low toxicity for use as a molecular probe to further characterize AID's intricacies, or even as a therapeutic.
# A FRET based analysis of cytosine deamination, was developed to identify potential inhibitors of AID catalytic activity. This screen has two signal output, Read 1 evaluates the AID inhibition response. The second readout (Read 2) evaluates UDG response and is uses as a counterscreen to exclude false positive inhibitors. Inhibition in AID and inactivity in the UDG signal is the desired outcome for this assay.
# SEQUENCE No. (e.g., 1, 2, 3, etc.); […] (e.g., Cells, Incubation, Reagent, etc.); VALUE; DESCRIPTION
# 1a; Reagent; 3 uL; [4/3x] 1 uM AID/2.67 U/mL UDG
# 1b; Reagent; 3 uL; 2 U/mL UDG
# 1c; Reagent; 3 uL; 1 uM AID
# 2a; Compound; 46 nL; Follow-up plates (0.64 uM - 10 mM)
# 2b; Control; 46 nL; ATA ([…] - 10 mM)
# 3; Time; 10 min; incubation at room temperature
# 5; Time; 4 hr; incubation at room temperature
# 6; Reagent; 4 uL; [2x] 250 mM NaOH
# 7; Time; 15 sec; centrifuge at 1000 rpm
# 8; Time; 30 min; incubation at room temperature
# 9a; Detection; fluorescence (Read 1: AID); EnVision (PerkinElmer) plate reader, 540 excitation and 590 emission filters
# 9b; Detection; fluorescence (Read 2: UDG); EnVision (PerkinElmer) plate reader, 560 excitation and 665 emission filters
# NOTES (numbers refer to sequence above)
# 1a; Reagents were dispensed in a medium-binding black solid-bottom Greiner plates (789176F) using a BioRptr liquid dispenser. Dispense 3 uL of [4/3x] 1 uM AID (provided by Kohli lab) and [4/3x] 2 U/mL UDG (NEB M0280L) into columns 1, 2, 5 to 48.
# 1b; Dispense 3 uL of [4/3x] 2 U/mL UDG into column 3.
# 1c; Dispense 3 uL of [4/3x] 1 uM AID into column 4.
# 2a; Compound (7-points [uM] (0.64; 3.2; 16; 80; 400; 2,000; 10,000; 20,000) double pin-transferred (Dip Factor = 2) using the Kalypsys (Wako USA) pintool equipped with a 1536 pinhead for a final concentration range of 7.32 nM - 114 uM.
# 2b; 10 mM Aurintricarboxylic Acid (Sigma A1895) (ATA, 8-point, n = 2, 1:2.5 dilution in column 2) double pin-transferred (Dip Factor = 2) using the Kalypsys (Wako USA) pintool equipped with a 1536 pinhead for a [final] range of 186 nM - 114 uM.
# 3; Room temperature incubation.
# 4; Dispense 1 uL of substrate mixture from the Kohli lab [4x] […] DJC20 and [4x] 250 nM DJC23 into columns 1 to 48 .
# 5; Room temperature incubation.
# 6; Dispense 4 uL of substrate mixture [2x] 250 mM NaOH into columns 1 to 48.
# 7; Centrifugation step to remove bubbles.
# 8; Room temperature incubation
# 9a; Fluorescence signal (column label AID) was read using the EnVision plate reader. […]
# % is scaled to controls: 0 for no effect and ±100 for the full control effect; potency is read from the fitted curve at half-maximal effect; tags tell the direction and shape of the fitted curve.
# Chain of UniProt Q9GZX7 (Q9GZX7 whole entry, looked up): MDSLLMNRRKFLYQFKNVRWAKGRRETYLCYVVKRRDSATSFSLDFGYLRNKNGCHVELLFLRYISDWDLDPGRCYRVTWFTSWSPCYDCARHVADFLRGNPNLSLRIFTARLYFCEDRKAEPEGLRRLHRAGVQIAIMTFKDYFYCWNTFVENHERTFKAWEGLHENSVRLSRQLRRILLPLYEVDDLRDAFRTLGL
SMILES,Potency,"activity change, negative = inhibition"
COc1ccccc1Cn1cc(C(=O)c2ccccc2)c(=O)c2cc(OC)c(OC)cc21,"inconclusive: 44.7 µM [inhibitor, partial curve, poor fit]",
COc1ccc(CCNC(=O)c2ccc3c(c2)nc(C)n3-c2ccc(Br)cc2)cc1OC,"inconclusive: 15.8 µM [inhibitor, partial curve, poor fit]",
CC(C)C1CC(CCN2CCOCC2)(c2ccccc2)CCO1 (stereo not given),inactive,
Cc1ccc(NC(=O)CN2C(=O)C(c3ccccc3)=NC23CCCCC3)cc1C,"inconclusive: 50.1 µM [inhibitor, partial curve, poor fit]",
CCc1ccc2occ(CC(=O)N(Cc3ccccc3)C3CCS(=O)(=O)C3)c2c1 (stereo not given),"inconclusive: 39.8 µM [inhibitor, partial curve]",
COCCn1c(SCc2ccc(Br)cc2)nnc1-c1cccc(C)c1,,inactive: -8.04%
CCOC(=O)C1=C(CN2CCC(C)CC2)NC(=O)NC1c1ccc(OC(C)C)cc1 (stereo not given),"inconclusive: 50.1 µM [inhibitor, partial curve, poor fit]",
Cc1cc(C(=O)CN2CCN(Cc3ccc4c(c3)CCO4)CC2)c(C)n1C1CCS(=O)(=O)C1 (stereo not given),,inactive: 11.6%
O=C(NCc1ccccc1S(=O)(=O)N1CCOCC1)c1ccc(OC(F)F)cc1,,inactive: -0.889%
CCSc1ccccc1C(=O)N1CCN(c2nc3ccccc3s2)CC1,"inconclusive: 10 µM [inhibitor, partial curve, poor fit]",
Cc1ccc(C(=O)NCC(c2ccc(Cl)cc2)N2CCCCC2)cc1 (stereo not given),"inconclusive: 50.1 µM [inhibitor, partial curve, poor fit]",
COCCCNC(=O)CCCn1c(SCC(=O)c2ccc(Br)cc2)nc2c(sc3ccccc32)c1=O,"inconclusive: 14.1 µM [inhibitor, partial curve, poor fit]",
COc1cc(C#N)cc(Cl)c1OCc1ccccc1C#N,,inactive: -0.536%
Cc1cc(Nc2ccccc2C)c2cccc(C)c2n1,"inconclusive: 79.4 µM [inhibitor, single point]",
Cc1c(C(=O)N2CCCC2)oc2c1-c1nn(CC(=O)NCc3ccc(OC(C)C)cc3)cc1CC2,"inconclusive: 100 µM [inhibitor, single point]",
COc1ccc(Cn2c(SCc3ccc(C(=O)NC4CCCCC4)cc3)nc3ccncc32)cc1,"inconclusive: 39.8 µM [inhibitor, partial curve, poor fit]",
N#Cc1nc(-c2ccc(COc3ccc(Cl)cc3)o2)oc1N1CCCCC1,"inconclusive: 35.5 µM [inhibitor, partial curve]",
CCc1ccc(C(c2ccccc2)c2c(C)[nH]c3ccccc23)s1 (stereo not given),"inconclusive: 17.8 µM [inhibitor, full curve]",
Cc1ccccc1C(=O)Nc1cccc(NC(=O)c2ccc(C(C)(C)C)cc2)c1,"inconclusive: 10 µM [inhibitor, partial curve, poor fit]",
COc1ccc(C2C(=O)N(C3CCCCCC3)CC(=O)N2CCc2ccc(Cl)cc2)cc1OC (stereo not given),"inconclusive: 17.8 µM [inhibitor, full curve, poor fit]",
COc1cc(C(=O)Oc2ccccc2C#N)cc(Cl)c1OC(C)C,,inactive: -11%
N=C(N)N1CCN(c2ccccc2)CC1,,inactive: -2.42%
CCc1ccccc1NC(=O)CN(c1ccccc1OC)S(=O)(=O)c1ccc(C)cc1,"inconclusive: 79.4 µM [inhibitor, partial curve, poor fit]",
Cc1cc(C)n2nc(C(=O)Nc3nc(-c4cccc(Br)c4)cs3)nc2n1,"inconclusive: 50.1 µM [inhibitor, partial curve, poor fit]",
COc1ccc(NC(=O)CSc2nc3ccccc3nc2N2CCOCC2)c(OC)c1,"inconclusive: 17.8 µM [inhibitor, full curve, poor fit]",
COc1ccc(C(=O)/C=C/c2cn(CC(O)CN3CCCCCC3)c3ccccc23)cc1OC (stereo not given),"inconclusive: 56.2 µM [inhibitor, partial curve, poor fit]",
O=C(c1csc(Nc2cccc3ccccc23)n1)N1CCc2ccccc2C1,"inconclusive: 35.5 µM [inhibitor, partial curve, poor fit]",
COc1cc(C(=O)NCCc2sc(-c3ccc(C)cc3)nc2C)cc(OC)c1OC,"inconclusive: 31.6 µM [inhibitor, single point]",
O=C(COc1ccc2oc3c(c2c1)CCCC3)Nc1cccc(Br)c1,"inconclusive: 56.2 µM [inhibitor, partial curve, poor fit]",
CCc1ccc(NC(=O)CCc2c(C)nn(-c3ccc(N4CCCC4)nn3)c2C)cc1,"inconclusive: 89.1 µM [inhibitor, single point]",
